In all, about 33,000 sequences were measured (“E-score (-0.5 to 0.5)”: median about -0.054, highest 2% from about 0.39 on). The list shows a part of the results.
Target: Ylr278c (UniProt Q05854)
Test: PBM E-score (8-mer binding enrichment) (E-score (-0.5 to 0.5)); higher = stronger / more preferred TF binding; most listed sequences are background and not binding sites
Settings: protein concentration: 200 nM; construct: GST-DNA-binding domain
Method in brief: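 PURExpress in vitro transcription/translation supplied GST-tagged yeast transcription factors, either full-length or DNA-binding domain. Applied at about 100-200 nM to universal all-10-mer Agilent arrays double-stranded by primer extension, the bound protein was detected with fluorescent anti-GST. E-scores, modified Wilcoxon-Mann-Whitney statistics, were given by the Universal PBM Analysis Suite to ungapped eight-base words pooled with their reverse complements after masliner normalisation.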

Sequence | PBM E-score
GGCCGAGA | 0.272
TGCTGGAA | -0.0626
ACCTTGCC | -0.158
ACGCCAAC | -0.116
GGCGTTGA | -0.0134
CAACACAG | -0.243
GTTACTGA | 0.204
AGAACACG | 0.125
AACGCGTA | -0.0626
CCAAGTGC | -0.0885
GACCCGGA | 0.391
GACATGGC | -0.0968
CATACCCG | 0.115
GGAATCAA | 0.0795
ACACGCCC | -0.00341
GAGTACAA | 0.114
ATAGTGAA | -0.0766
CGGACAAC | 0.389
CCCGAGCA | -0.0534
CGAACGGA | 0.312
CACATGAC | -0.257
AATAATGT | -0.0681
AAAAGCTG | -0.239
ACAAACAT | -0.0192
CCAGAGTC | -0.149

Sequence | PBM E-score
GTAACGCA | -0.0544
ACACGGGT | -0.105
ATTCAGTA | -0.0597
ATGTCTTA | -0.314
CCAGCTAA | -0.289
GACCGGCA | 0.258
GTGATGAA | -0.124
ACCTACAC | -0.344
TCCCAAGA | -0.0481
GTAATGCA | -0.189
CGTGTTTA | -0.0255
CGCGGACA | 0.345
CGCTTTAC | 0.0246
AACGGGGA | 0.115
GCCAAGGA | -0.155
GCCTGCGA | -0.145
GCAATTGA | 0.104
TCATCCAA | -0.183
AATGAACT | 0.0841
CTGTTAGC | -0.0068
GCGGGAGA | 0.28
ACTAAATC | 0.148
CAGTATAG | -0.0684
AAAGATGA | -0.132
CACACGGC | 0.254

Sequence | PBM E-score
CAATCACC | 0.0638
AAGATGAC | -0.26
AGATTGAG | -0.0312
GGAAGTGA | 0.104
CGCGCGCC | 0.176
CAAAACGC | 0.174
ATAAGTAC | -0.156
ACAGAGGC | -0.199
CCAAGGCG | -0.0697
ATTAAGGG | -0.142
GACACCGC | 0.178
CCGCAGAC | 0.164
CGTTTTTC | 0.076
TGAGTGCA | -0.0987
AAGAAGGA | -0.167
GAGTCAAC | -0.162
AAGGATAT | 0.00861
AATTAGGA | 0.0501
AATTTTTA | 0.0164
AACACCCG | 0.208
ACACCGCA | 0.233
CCCGCAAG | -0.157
CACTCTTA | -0.226
GACACCTC | 0.093
GCCCGGGC | 0.356

Sequence | PBM E-score
GCGTGTCA | 0.0799
ACTCCAGA | -0.112
CTTGAAAC | 0.196
CTTCGACA | -0.212
AGAACGAT | -0.205
ACTAGTAG | -0.169
ATGCGCAC | -0.0276
CGGAATAC | 0.423
ACACTCTA | -0.0725
ATCGTACA | -0.153
AGGTCTCA | -0.123
CATCCTAG | -0.279
AGGAAGAG | -0.0944
ACCCGTCT | -0.0407
ACGGAGAG | 0.336
TCCTCACA | -0.107
TACTAAAA | 0.0322
GAGAGTGA | -0.165
AAATGTCA | 0.00522
GGGAAACA | 0.0989
CCGAACGA | 0.257
AGCCCGCG | 0.256
AATGTATG | -0.076
ATTTTTTA | 0.114
GATCGCCA | -0.0483

Sequence | PBM E-score
TGTCGGAA | 0.384
CATCCATG | -0.168
GACCGGAA | 0.389
CAAACGAC | 0.00801
AAAGCGTG | -0.0745
AGGGCGAA | -0.00214
CCAGCCCA | -0.134
CCTGAGGC | -0.168
CCACACGC | -0.00547
GACCACGC | -0.0704
TCTCGCCA | -0.0779
CGTGCTAC | -0.141
ACCTGGTC | 0.0533
CAAGTAAA | 0.0501
CGTTGTTC | 0.119
CTGGTAGA | -0.0605
CGGGGTAA | 0.365
CCATCCAA | -0.132
CATTCGGA | 0.339
ACAATTTC | 0.0194
ATCTGCCG | 0.33
GCTTCCGA | 0.29
CTCTGTAA | -0.219
ATATGGTG | -0.172
GACCAGTA | -0.0849

Sequence | PBM E-score
CCAACTTC | -0.111
ACCCCCAG | -0.27
GTGAATTA | -0.0303
CTTAGAGC | -0.0931
AGCTTCCA | 0.0154
ACAGAGGT | -0.333
CGTTGAAC | 0.0582
GGGTGGTA | -0.0396
AGCGATAA | 0.104
ACAGGCCT | -0.163
CGTAACAC | -0.0228
ACACGTAC | -0.197
CAACGGTC | -0.00498
AGAGGCGA | -0.283
AGAGGCAA | -0.0402
GAGCAATC | 0.106
GGAGGCCA | 0.123
ACCTTCTA | -0.186
GCCCCATA | -0.0325
GCTAGGAA | -0.191
CCTACGCG | 0.047
AGTGCTCG | -0.139
CCAACAGA | -0.147
CACCTACC | -0.106
CAGAAAAA | -0.161

Sequence | PBM E-score
AGCGGGGA | 0.206
CGGGTTTA | 0.356
ACACCGCT | 0.00228
CATTCTAG | -0.392
ATCTCGAG | -0.0814
GGGCTAAA | 0.137
CTCGTGAC | -0.14
ACGACCAA | -0.17
GGACCTAC | 0.125
CACAGAGG | -0.233
ACACTTCG | -0.124
CCTGGCCG | -0.0118
AAATTTCT | -0.0984
CCTATGCA | -0.217
GCTTGGAA | -0.112
AGGTAATG | 0.114
AATTTAAA | 0.0714
ATTAAATA | 0.0934
ATACAGGC | -0.16
CCTGCAAC | -0.279
ATTATCAG | -0.0735
AGATGTAC | -0.209
AGGGTAAC | -0.22
CGATGAGA | 0.0144
CCTATGTA | -0.251

Sequence | PBM E-score
AGCAGGTA | -0.107
GTATAGAC | -0.087
ACCAAGGC | -0.0919
CGCAAACG | 0.0438
CAAACCGG | 0.287
CGGCGCTA | 0.163
GCAGATGA | -0.064
GCTCTGAA | -0.289
ATCCGGGA | 0.332
AGTGTCCG | 0.272
ATAGTCAC | -0.153
AGGATATC | -0.0439
AAGGTCCC | -0.138
ACGGTAAC | 0.0974
ACGAATCT | -0.113
GCCACAAA | -0.0336
CAGACCGA | 0.15
CTTGATCA | -0.0711
CGATTCAA | -0.0611
ATCACACC | 0.132
CATGTGGA | -0.145
GGGCTCAC | -0.0724
ACCAGGTC | -0.011
AGACGAAC | -0.185
CTCTACAC | -0.136

Sequence | PBM E-score
GGTCGGAA | 0.338
AGGACGTA | -0.126
ATGCACAG | -0.214
AAAACAGG | -0.221
CAGTCAAC | -0.246
CAGTTTTC | -0.00053
AGCCTGAG | -0.368
AGACAACC | 0.101
AATGTCAA | -0.0519
CATTAAGA | -0.311
ACATAAAG | -0.0765
AGCAGCCC | -0.119
GGGCTCTA | -0.0272
TATGCAGA | -0.196
ACAGGTTC | -0.235
AAGTAGGA | -0.313
CGATACCG | 0.147
CCCATCGA | -0.177
GTAAGTGA | -0.0628
CGATATGA | -0.0469
ACTTGCTA | -0.123
CTCCTCCC | 0.0194
AATTGCTA | -0.0851
ACCCCCGT | 0.133
CCTTACGC | -0.0842

Sequence | PBM E-score
AATTACTA | -0.0423
CATATTAC | -0.0175
CATACTCC | 0.339
AGTTGCTG | -0.044
AAGATACG | -0.00117
CGCATAAG | -0.00895
GCTGAAAC | 0.061
AATGCTGG | 0.0448
AGACTCGC | -0.0408
ACGGGGCA | 0.00354
ATGAGTCG | -0.207
GACAGCTA | -0.323
ATTCTGGG | -0.105
CCCGCGGA | 0.409
AAACCAAG | -0.111
ATACCAAC | -0.0752
AATTGCTG | 0.0356
ACACGGCT | 0.0922
CCCTTGCA | -0.207
GGAGACGA | 0.241
GCCATGAA | -0.0869
CATACGCG | 0.0999
ATGCGGCC | -0.0109
GTCAGACA | -0.166
CGGCCACC | 0.27

Sequence | PBM E-score
TAACCCCA | 0.0189
GCATCGAC | -0.19
CCAATGAC | -0.323
GATCGTTA | -0.0309
CCAGGCGA | -0.213
ATCAGCTG | -0.148
CTTCCGAA | 0.371
TCCTAAAA | -0.127
CACCAGAA | -0.277
AGGACACA | -0.0917
GATGACGA | -0.207
CGCCAGAA | 0.00671
CATTCCAA | -0.174
TTAGGAAA | -0.204
CTAGAAGA | -0.136
AAGCTCCA | -0.18
ACCGGCCC | 0.251
AGGAATAC | -0.0793
TGGGGCAA | -0.228
CGGGTATC | 0.0993
GCGGTCGA | 0.188
ATACACAG | -0.21
GGGTTATA | -0.0437
CATAAAGC | -0.265
ATATTTAG | -0.0675

Sequence | PBM E-score
GATCCGGA | 0.439
ATAGCATC | -0.158
AATTTCGC | 0.182
ATACGGCG | 0.263
CAGGACAA | 0.0271
GAAAATCA | 0.0185
CCGTACGA | 0.0173
CCGGCCGC | 0.327
CCCACGTA | -0.213
AGTCATGC | -0.146
CTTCACCA | -0.159
ACACTCAG | -0.128
AGGAAATA | 0.0859
ACAGTGTC | -0.211
TGTCAAAA | -0.0835
AATTGTAT | -0.0535
ATTTTGGA | 0.168
CACTTCCC | 0.0266
AAAAAAGG | 0.1
CTGAAATC | 0.0679
CTCTAGGA | -0.208
AGCCCTGA | -0.159
AGGAATCA | -0.0846
AATTCTAT | -0.243
CCTTTGCG | 0.00026

Sequence | PBM E-score
ACTGAATC | -0.182
GAGTCGTA | -0.0963
GGCCCGTA | 0.173
GTTGTGTA | -0.159
CCAATCAC | -0.106
TCTAACAA | -0.2
TCCCGGCA | 0.333
CAAGAAAG | -0.0661
CCACCCCC | -0.0149
CTTGTATA | -0.0791
AGGAACCA | -0.149
AGTACTGC | -0.217
ATGTGCTG | -0.0375
GTCTGTGA | -0.222
CTTTCATC | -0.135
TCATACGA | -0.0489
CGCGGCCC | 0.202
GAGCTGAC | -0.0423
CGGAAGAC | 0.334
CTTTAGCA | -0.0846
GCCTTAAA | -0.0692
ACATGTGG | -0.0377
AAGTTGGA | -0.188
CGTTAGGA | 0.126
CGGTTTAA | 0.12

Sequence | PBM E-score
CATCAGAC | -0.149
CACTATTA | 0.0057
ACGCCCAT | 0.00399
ACCCATGG | -0.00299
CGATATTA | 0.176
CCATGAGG | 0.0433
GCAGAAAA | 0.0387
ATTACTGC | 0.0346
GTAGAGAA | -0.0517
AGCTCCCA | -0.16
ACCGTGCA | -0.0991
AAAAACTC | 0.127
CCAGAATA | -0.0334
AACATCTA | -0.214
CCAACTAA | -0.0336
CACGGTCC | -0.0441
CCACTTCA | -0.13
CAGATTCA | -0.283
ACCCTTCC | 0.124

— the supplement of paper PMC3334620
